# Results: the supplement of paper PMC9135407
# Values joined by “and” are separate entries in the source; they are usually repeats but may differ in a detail not shown here. Equal values may be shown once. Where a name gives a salt, the structure may show the parent alone. Screen size: about 5,800 compounds; about 620 (11%) showed activity.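 The calls were made as follows: active = score above a cut-off or among the top three wells of a plate; in these data no inactive exceeds 0.85.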 The entries are a selection whose mix differs from that of the whole data set.
# Tested on: primary human hepatic stellate cells (donor 1)
# Test: scaled lipid accumulation score (0 = DMSO-like, 1 = nortriptyline-like); higher = stronger HSC inactivation (lipid re-accumulation), active = hit call of the paper
# Settings: 48 h
# [1] = library stock concentration: 10 mM
# [2] = library stock concentration: 3.33 mM
# [3] = library stock concentration: 2 mM
# [4] = library stock concentration: 1 mM
smiles,measurement,setting,value
CN(C)CCN(Cc1ccccc1)c1ccccn1,scaled lipid accumulation score,[1],inactive: 0.285
CN(C)CCN(Cc1ccccc1)c1ccccn1 [Tripelennamine citrate],scaled lipid accumulation score,library stock concentration: 4.5 mM,inactive: 0.077
CN(C)CCN(Cc1ccccc1)c1ccccn1 [Tripelennamine HCl],scaled lipid accumulation score,[2],inactive: ≤ 0
same,scaled lipid accumulation score,[1],inactive: 0.385
C=CC1=C(C)c2cc3[nH]c(cc4nc(cc5[nH]c(cc1n2)c(C)c5CCC(=O)O)C(CCC(=O)O)=C4C)c(C)c3C=C [Protoporphyrin ix],scaled lipid accumulation score,[1],inactive: ≤ 0
CO[C@H]1C[C@@H]2CC[C@@H](C)[C@@](O)(O2)C(=O)C(=O)N2CCCC[C@H]2C(=O)O[C@H]([C@H](C)C[C@@H]2CC[C@@H](OCCO)[C@H](OC)C2)CC(=O)[C@H](C)/C=C(\C)[C@@H](O)[C@@H](OC)C(=O)[C@H](C)C[C@H](C)/C=C/C=C/C=C/1C,scaled lipid accumulation score,library stock concentration: 80 uM,inactive: ≤ -0.016
same,scaled lipid accumulation score,library stock concentration: 400 uM,inactive: ≤ -0.016
same,scaled lipid accumulation score,[3],inactive: ≤ -0.016
same,scaled lipid accumulation score,[1],inactive: 0.089
CO[C@H]1C[C@@H]2CC[C@@H](C)[C@@](O)(O2)C(=O)C(=O)N2CCCC[C@H]2C(=O)O[C@H]([C@H](C)C[C@@H]2CC[C@@H](OCCO)[C@H](OC)C2)CC(=O)[C@H](C)/C=C(\C)[C@@H](O)[C@@H](OC)C(=O)[C@H](C)C[C@H](C)/C=C/C=C/C=C/1C [Everolimus (RAD001)],scaled lipid accumulation score,[2],inactive: ≤ 0
same,scaled lipid accumulation score,[1],inactive: ≤ 0
Fc1ccc(Cl)cc1-c1nc(Nc2ccncc2)c2nccnc2n1,scaled lipid accumulation score,[1],inactive: ≤ -0.001
O=C(/C=C/c1ccccc1)NC(NC(=S)Nc1cccc2cccnc12)C(Cl)(Cl)Cl (configuration not stated) [Salubrinal],scaled lipid accumulation score,[2],inactive: ≤ 0
same,scaled lipid accumulation score,[1],inactive: 0.048 and inactive: 0.001
CC(=O)O[C@@]12CO[C@@H]1C[C@H](O)[C@@]1(C)C(=O)[C@H](O)C3=C(C)[C@@H](OC(=O)[C@H](O)[C@@H](NC(=O)OC(C)(C)C)c4ccccc4)C[C@@](O)([C@@H](OC(=O)c4ccccc4)[C@H]21)C3(C)C [Docetaxel],scaled lipid accumulation score,[2],inactive: ≤ 0
same,scaled lipid accumulation score,[1],inactive: ≤ 0
CC(=O)O[C@@]12CO[C@@H]1C[C@H](O)[C@@]1(C)C(=O)[C@H](O)C3=C(C)[C@@H](OC(=O)[C@H](O)[C@@H](NC(=O)OC(C)(C)C)c4ccccc4)C[C@@](O)([C@@H](OC(=O)c4ccccc4)[C@H]21)C3(C)C,scaled lipid accumulation score,[1],inactive: ≤ 0
CC(C(O)c1ccc(O)cc1)N1CCC(Cc2ccccc2)CC1.CC(C(O)c1ccc(O)cc1)N1CCC(Cc2ccccc2)CC1.O=C(O)C(O)C(O)C(=O)O (configuration not stated) [Ifenprodil tartrate],scaled lipid accumulation score,[1],active: 1.11
CCN(CC)CCCCCCCCOC(=O)c1cc(OC)c(OC)c(OC)c1.Cl [TMB-8 hydrochloride],scaled lipid accumulation score,[1],active: 1.03
CCN1CCC(n2cc(CNc3cc(Cl)c4ncc(C#N)c(Nc5ccc(F)c(Cl)c5)c4c3)nn2)CC1,scaled lipid accumulation score,[1],active: 1.15
O=C(c1ccc(Nc2nccc(-c3cc4ccccc4s3)n2)cc1)N1CCC(N2CCCC2)CC1,scaled lipid accumulation score,[1],inactive: 0.18
O=C(c1ccc(Nc2nccc(-c3cc4ccccc4s3)n2)cc1)N1CCC(N2CCCC2)CC1 [IKK-16 (IKK Inhibitor VII)],scaled lipid accumulation score,[1],inactive: 0.246
Clc1ccc(CSC(Cn2ccnc2)c2ccc(Cl)cc2Cl)cc1 (configuration not stated) [Sulconazole nitrate],scaled lipid accumulation score,,inactive: 0.081
same,scaled lipid accumulation score,[1],inactive: 0.297
Clc1ccc(CSC(Cn2ccnc2)c2ccc(Cl)cc2Cl)cc1 (configuration not stated) [Sulconazole Nitrate],scaled lipid accumulation score,[2],inactive: ≤ 0
same,scaled lipid accumulation score,[1],inactive: 0.492
Nc1ncnc2c1ncn2[C@@H]1O[C@H](CO)[C@@H](O)[C@H]1O [Adenosine],scaled lipid accumulation score,[2],inactive: 0.024
same,scaled lipid accumulation score,library stock concentration: 7.5 mM,inactive: 0.019
same,scaled lipid accumulation score,[1],inactive: ≤ 0 and inactive: 0.188
C[n+]1cc2c3c(ccc2c2ccc4cc5c(cc4c21)OCO5)OCO3 [Sanguinarine sulfate],scaled lipid accumulation score,library stock concentration: 4.7 mM,inactive: 0.693
same,scaled lipid accumulation score,[1],inactive: 0.287
C[n+]1cc2c3c(ccc2c2ccc4cc5c(cc4c21)OCO5)OCO3 [Sanguinarine chloride],scaled lipid accumulation score,[1],inactive: 0.196
Cc1cc(C)c(Nc2ccnc(Nc3ccc(C#N)cc3)n2)c(C)c1 [Dapivirine (TMC120)],scaled lipid accumulation score,[2],inactive: 0.243
Cc1cc(/C=C2/SC(=S)NC2=O)c(C)n1-c1cccnc1 [Optovin],scaled lipid accumulation score,[2],inactive: ≤ -0.009
same,scaled lipid accumulation score,[1],inactive: ≤ 0
O=C(CCC/C=C\C[C@@H]1[C@@H](/C=C/[C@@H](O)CCc2ccccc2)[C@H](O)C[C@@H]1O)NC(CO)CO [17-phenyl trinor Prostaglandin F2.alpha. serinol amide],scaled lipid accumulation score,[4],inactive: 0.062
N[C@@H](Cc1cc(I)c(Oc2cc(I)c(O)c(I)c2)c(I)c1)C(=O)O [L-Thyroxine],scaled lipid accumulation score,[2],inactive: ≤ 0
same,scaled lipid accumulation score,[1],inactive: ≤ 0
N[C@@H](Cc1cc(I)c(Oc2cc(I)c(O)c(I)c2)c(I)c1)C(=O)O [Levothyroxine],scaled lipid accumulation score,library stock concentration: 2.6 mM,inactive: ≤ 0
N[C@@H](Cc1cc(I)c(Oc2cc(I)c(O)c(I)c2)c(I)c1)C(=O)O,scaled lipid accumulation score,[1],inactive: ≤ 0
CC1(C)CCC(C)(C)c2cc(NC(=O)c3ccc(C(=O)O)cc3)ccc21 [Tamibarotene],scaled lipid accumulation score,[2],inactive: ≤ 0
same,scaled lipid accumulation score,[1],inactive: ≤ -0.001
O=C(O)C(O)Cc1ccc(O)c(O)c1 (configuration not stated) [Sodium Danshensu],scaled lipid accumulation score,[2],inactive: ≤ 0
same,scaled lipid accumulation score,[1],inactive: ≤ 0
Cc1ccc(CC2(O)CCN(CCOc3ccc(O)cc3)CC2)cc1,scaled lipid accumulation score,[1],inactive: 0.414
Cc1ccc(NC(=O)Nc2cc(C(F)(F)F)ccc2F)cc1Nc1ccc2c(c1)NC(=O)C2=Cc1ccc[nH]1,scaled lipid accumulation score,[3],active: 1.14
same,scaled lipid accumulation score,[1],active: 1.61
N=C(N)NC(=O)Cc1c(Cl)cccc1Cl [Guanfacine hydrochloride],scaled lipid accumulation score,,inactive: ≤ 0
same,scaled lipid accumulation score,[1],inactive: 0.148 and inactive: 0.048
N=C(N)NC(=O)Cc1c(Cl)cccc1Cl [Guanfacine HCl],scaled lipid accumulation score,library stock concentration: 7.1 mM,inactive: ≤ -0.006
CCCCCCC=CCCCCCCCCCCOC(C)=O [11-cis Vaccenyl Acetate],scaled lipid accumulation score,[4],inactive: ≤ 0
CNCc1ccc(C)c(NC(=O)c2ccc(Nc3nc(-c4ccccc4)c4ccccc4n3)cc2)c1,scaled lipid accumulation score,[2],active: 1.14
